Data reported in publication PMC4336329 (PLoS ONE, 2015).
The whole screen tested about 310,000 compounds, of which about 2,200 (0.71%) showed an effect of 50% or more. Effects have a minus sign here. The list shows a part of the results.

The compounds below were run against human ether-à-go-go-related gene (hERG) potassium channel (human, UniProt Q12809) (assay: primary screen, population patch clamp on CHO cells stably expressing hERG).
Chain of human ether-à-go-go-related gene (hERG) potassium channel (Q12809 whole entry, looked up): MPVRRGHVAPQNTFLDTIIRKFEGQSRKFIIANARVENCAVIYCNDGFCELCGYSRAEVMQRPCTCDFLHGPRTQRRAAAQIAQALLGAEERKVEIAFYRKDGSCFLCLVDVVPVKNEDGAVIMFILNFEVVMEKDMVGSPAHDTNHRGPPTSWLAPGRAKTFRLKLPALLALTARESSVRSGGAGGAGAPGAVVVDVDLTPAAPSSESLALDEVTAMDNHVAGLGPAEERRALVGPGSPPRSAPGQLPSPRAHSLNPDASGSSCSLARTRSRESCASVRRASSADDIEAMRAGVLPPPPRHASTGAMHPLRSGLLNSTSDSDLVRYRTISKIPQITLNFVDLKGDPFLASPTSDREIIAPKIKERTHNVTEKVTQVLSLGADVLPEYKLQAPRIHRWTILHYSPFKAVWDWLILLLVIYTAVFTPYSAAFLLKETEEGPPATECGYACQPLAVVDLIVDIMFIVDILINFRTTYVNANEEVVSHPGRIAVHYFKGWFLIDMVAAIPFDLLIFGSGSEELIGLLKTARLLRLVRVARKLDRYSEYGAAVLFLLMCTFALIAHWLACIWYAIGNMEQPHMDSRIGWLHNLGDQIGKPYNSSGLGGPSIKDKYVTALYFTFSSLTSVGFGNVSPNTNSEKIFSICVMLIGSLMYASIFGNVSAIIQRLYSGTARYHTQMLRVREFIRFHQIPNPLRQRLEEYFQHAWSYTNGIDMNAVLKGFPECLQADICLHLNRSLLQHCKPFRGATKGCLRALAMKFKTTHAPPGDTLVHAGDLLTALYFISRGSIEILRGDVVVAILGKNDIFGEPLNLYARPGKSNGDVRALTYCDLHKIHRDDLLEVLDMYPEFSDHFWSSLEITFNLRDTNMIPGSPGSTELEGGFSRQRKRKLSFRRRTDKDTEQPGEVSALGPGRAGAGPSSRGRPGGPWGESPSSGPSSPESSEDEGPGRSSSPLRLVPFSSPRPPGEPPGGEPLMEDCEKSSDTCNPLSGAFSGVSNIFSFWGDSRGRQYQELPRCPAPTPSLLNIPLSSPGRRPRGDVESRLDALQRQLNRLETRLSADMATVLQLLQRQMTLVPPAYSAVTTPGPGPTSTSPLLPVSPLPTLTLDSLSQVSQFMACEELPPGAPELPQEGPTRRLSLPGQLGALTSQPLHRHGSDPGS

Compared with COc1cc(/C=C(\C#N)C(=O)c2c[nH]c3ccccc23)cc(OC)c1O, COc1ccc(/C(C)=N\NS(=O)(=O)c2ccccc2)cc1OC is lower in “hERG current change (%, negative = inhibition) at 1uM” value: 10.1% for the first, -1.16% for the second.

First: CCCC(=O)Nc1nnc(-c2ccc(Cl)s2)o1
Second: Cc1cc(SCC(=O)c2ccc(Cl)cc2)nc(=O)[nH]1
The “hERG current change (%, negative = inhibition) at 1uM” value of the first is higher: 11.5% for the first, 9.85% for the second.

Going from O=C(O)c1ccc(N/N=C/c2cn(Cc3ccc(F)cc3)c3ccccc23)cc1 to O=C(NNC(=O)c1ccc([N+](=O)[O-])cc1)c1ccc(F)cc1, the “hERG current change (%, negative = inhibition) at 1uM” value rises from 10.6% to 13.8%.

First: O=c1[nH][nH]c(C(F)(F)F)c1C=Nc1ccccc1Cl
Second: O=c1[nH]c(-c2cccs2)nc2ccccc12
The “hERG current change (%, negative = inhibition) at 1uM” value of the first is higher: 11.4% for the first, 4.72% for the second.

First: COC(=O)c1ccc(C)c(NC(=O)CSc2nnc3ccccn23)c1
Second: CCCCn1c(-c2ccccc2)cnc1SCC(=O)NCCc1ccc(OC)c(OC)c1.Cl
The “hERG current change (%, negative = inhibition) at 1uM” value of the first is higher: 4.75% for the first, 2.66% for the second.

First: COc1ccc(CCN(Cc2cc3cccc(C)c3n3nnnc23)C(=O)c2ccncc2)cc1OC
Second: CCC(C(=O)NCCc1ccccc1OC)n1nc(C)c2c(C)n(-c3ccccc3)nc2c1=O (centres unmarked)
The “hERG current change (%, negative = inhibition) at 1uM” value of the first is higher: 1.24% for the first, -6.39% for the second.

First: C[C@]12CC[C@@H]3c4ccc(O)cc4CC[C@H]3[C@@H]1C[C@@H](O)[C@@H]2O
Second: CC1CCN(C(=S)NC(=O)c2cccc([N+](=O)[O-])c2)CC1
The “hERG current change (%, negative = inhibition) at 1uM” value of the first is higher: 1.94% for the first, -8.07% for the second.

Compared with COc1ccc2nc(N=NC3=C(O)CC(C)(C)CC3=O)sc2c1, COc1ccc(C)cc1NCc1cc(=O)oc2cc(-c3ccccc3)c(O)cc12 is lower in “hERG current change (%, negative = inhibition) at 1uM” value: 7.73% for the first, 5.03% for the second.

Compared with NNC(=O)c1ccc(Cl)cc1, Cc1ccc(CC(=O)NCC(C)C)cc1 is higher in “hERG current change (%, negative = inhibition) at 1uM” value: 7.3% for the first, 8.37% for the second.

First: COc1ccccc1OCCC(=O)OCC(=O)Nc1ccc(Br)cc1F
Second: COc1ccccc1OCc1cc(C(=O)N2CC3C[C@@H]4CC2C[C@H](C3)C4)no1
The “hERG current change (%, negative = inhibition) at 1uM” value of the first is lower: -4.64% for the first, 8.97% for the second.

Going from Cc1ccc(C)c(NC(=O)c2nc(-c3ccccc3)n(-c3ccccc3)n2)c1 to O=C(Nc1ccc(Cl)c(Cl)c1)Nc1nc(-c2ccccc2)cs1, the “hERG current change (%, negative = inhibition) at 1uM” value falls from 4.53% to 3.7%.

Compared with c1ccc2sc(SN3CCOCC3)nc2c1, O=C(N/C(=C\c1ccccc1)C(=O)N1CCOCC1)c1cccc(Br)c1 is higher in “hERG current change (%, negative = inhibition) at 1uM” value: 9.64% for the first, 18.8% for the second.

First: Cc1ccc(S(=O)(=O)N(C)CCCC(=O)NC(C)(C)CO)cc1
Second: CCOC(=O)NC(=O)/C(C#N)=C/c1ccc(N(C)C)cc1
The “hERG current change (%, negative = inhibition) at 1uM” value of the first is lower: 10.2% for the first, 15.2% for the second.

Going from O=C(NCCC(=O)N1CCN(c2cccc(Cl)c2)CC1)c1ccc(Br)cc1 to COc1ccc(CC(=O)NCCS(=O)(=O)N2CCN(c3ccccc3)CC2)cc1, the “hERG current change (%, negative = inhibition) at 1uM” value rises from 3.83% to 6.88%.

Compared with COCCn1c(N)c(N(Cc2ccccc2)C(=O)c2oc3ccccc3c2C)c(=O)[nH]c1=O, Cc1c(N2C(=O)C(C)SC23C(=O)Nc2ccccc23)c(=O)n(-c2ccccc2)n1C (centres unmarked) is lower in “hERG current change (%, negative = inhibition) at 1uM” value: 12.9% for the first, 12.8% for the second.

Compared with O=C(CSc1cccc(C(F)(F)F)c1)NCc1ccccc1, C=CCn1c(SCC(=O)NCc2ccco2)nc2ccccc2c1=O is lower in “hERG current change (%, negative = inhibition) at 1uM” value: 10.8% for the first, -14.4% for the second.

Compared with CCOC(=O)c1[nH]c2c(c1C)C(=O)CC(c1ccc(F)cc1)C2 (centres unmarked), CCOC(=O)c1ccc(N2C(=O)CC(SCC(=O)Nc3ccc(S(N)(=O)=O)cc3)C2=O)cc1 (centres unmarked) is higher in “hERG current change (%, negative = inhibition) at 1uM” value: 9.28% for the first, 16.7% for the second.

First: Cn1ncc(Cl)c1C(=O)NC(=S)Nc1sc2c(c1C#N)CCCCC2
Second: O=C(Nc1cnn(Cc2ccc(Cl)c(Cl)c2)c1)C12CC3CC(CC(C3)C1)C2
The “hERG current change (%, negative = inhibition) at 1uM” value of the first is higher: 14.8% for the first, 8.51% for the second.

First: c1ccc2c(c1)OCCOCCOCCO2
Second: O=C(Cn1ccc2ccccc21)Nc1ccc2c(c1)OCO2
The “hERG current change (%, negative = inhibition) at 1uM” value of the first is higher: 13.2% for the first, 9.07% for the second.

Compared with COC(=O)c1[nH]c2ccccc2c1NC(=O)CN1CCN(C/C=C/c2ccccc2)CC1, CCOC(=O)c1c(CN2CCN(CCO)CC2)n(-c2ccccc2)c2cc(Br)c(O)cc12 is higher in “hERG current change (%, negative = inhibition) at 1uM” value: -84.4% for the first, -3.86% for the second.

Compared with COc1ccccc1CN1CCN(C(=O)c2ccco2)CC1.O=C(O)C(=O)O, N#C/C(C(N)=O)=C1/CCCN1Cc1ccccc1 is lower in “hERG current change (%, negative = inhibition) at 1uM” value: 12.3% for the first, 3.5% for the second.

Going from COc1ccc(NS(=O)(=O)c2ccc(S(=O)(=O)N3CCCC3)cc2)cc1 to O=C(NCCc1c[nH]c2ccccc12)C(=O)NCC1OCCCN1S(=O)(=O)c1cccs1 (centres unmarked), the “hERG current change (%, negative = inhibition) at 1uM” value falls from 6.34% to 5.02%.

Compared with O=C(COc1ccc(F)cc1)Nc1nccs1, Nc1ccc2ncccc2c1N is higher in “hERG current change (%, negative = inhibition) at 1uM” value: 6.39% for the first, 11.1% for the second.

Going from COc1cc(C(CC(=O)N2CCCC2)c2c(OC)cc(OC)c3c(-c4ccccc4)cc(=O)oc23)cc(OC)c1OC (centres unmarked) to COc1cc2c(cc1OC)-c1cc(OCCN3CCOCC3)nc(=O)n1CC2, the “hERG current change (%, negative = inhibition) at 1uM” value falls from 11.5% to -10.5%.

Compared with Cc1cc(C(=O)N(C)CC(=O)Nc2ccccc2C(F)(F)F)c(C)o1, O=C(Cn1cc(C(F)(F)F)cc(Cl)c1=O)NC1CCS(=O)(=O)C1 (centres unmarked) is higher in “hERG current change (%, negative = inhibition) at 1uM” value: -13.4% for the first, 3.01% for the second.

First: CC(C)C1N=C2c3ccccc3N=C(SCc3cc(=O)n4cc(Cl)ccc4n3)N2C1=O (centres unmarked)
Second: Cc1ccc2cc(C(c3nnnn3C3CCCC3)N3CCN(c4ccc(F)cc4)CC3)c(=O)[nH]c2c1 (centres unmarked)
The “hERG current change (%, negative = inhibition) at 1uM” value of the first is lower: -24% for the first, 1.78% for the second.

First: COc1cc(NS(C)(=O)=O)cc(OC)c1OC
Second: CCOc1cc(Cl)c(S(=O)(=O)NCc2ccccn2)cc1Cl
The “hERG current change (%, negative = inhibition) at 1uM” value of the first is higher: 12.1% for the first, 4.71% for the second.

Compared with N#CC1=C(N)OC2=C(C(=O)CCC2)C1c1cccs1 (centres unmarked), COc1cccc(-c2c(C(=O)N/N=C/c3ccncc3)nnn2-c2nonc2N)c1 is lower in “hERG current change (%, negative = inhibition) at 1uM” value: 12.5% for the first, 0.9% for the second.
